# In patent US9243281B2, “Neuroprotective chemicals and methods for identifying and using same” (Board of Regents of The University of Texas System, priority 2013, dated 2016):
# “And” between values parts separate entries of the source, which are not always exact repeats. Equal values may be shown once. At least one read-out could not be matched to a standard name with certainty.
# Test system: hippocampal neurogenesis (Dentate Gyrus)
# Assay: in vivo neurogenesis assay (BrdU+ cells in dentate gyrus)
# Conditions: living mice; vehicle (DMSO) 7.3
# Source text: The screen was simple in concept. With help from chemists in the Department of Biochemistry at UTSWMC, we selected 1,000 druglike chemicals from the 250,000 compounds in our high throughput screening center. The compounds were selected to preserve representative chemical diversity of the entire library. They were further selected to enhance the representation of chiral molecules, and to avoid untoward chemical properties such as reactive moieties. The 1,000 molecules were randomly pooled into groups of ten, and each pool was administered directly into the left ventricle of two adult mice. Intracranial delivery was facilitated by stereotactic positioning of a canula fed directly by an Alzet mini-pump containing the mixture of ten chemicals. The drug mixture was administered over a week-long period at concentrations anticipated to deliver mid-nanomolar levels of the ten test compounds. Daily injections of the thymidine analog, bromodeoxyuridine (BrdU), were coadministered in order to monitor the formation of new hippocampal nerve cells. Following compound administration, animals were sacrificed such that brain tissue could be recovered, sectioned and stained with antibodies to BrdU. […]
row,Compound,Neurogenesis # BrdU+ Cells (X10E06)/mm3 Dentate Gyrus
1,OC(CNc1ccccc1)Cn1c2ccc(C(F)(F)F)cc2c2cc(C(F)(F)F)ccc21 (stereo not shown) [S75],10.3 (X10E06)/mm3 and 6.9 (X10E06)/mm3
2,"CN(C)CCCN1c2ccccc2CCc2ccc(Cl)cc21.Cl [S85, Clomipramine, reference compound]",8.4 (X10E06)/mm3 and 13.0 (X10E06)/mm3
3,Brc1ccc2c(c1)c1cc(Br)ccc1n2CCNc1ccccc1 [S115],6.6 (X10E06)/mm3 and 9.6 (X10E06)/mm3
4,"Fc1ccc([C@@H]2CCNC[C@H]2COc2ccc3c(c2)OCO3)cc1 [S120, Paxil, reference compound]",10.4 (X10E06)/mm3 and 8.8 (X10E06)/mm3
5,O=C(O)Cn1c2ccc(Br)cc2c2cc(Br)ccc21 [S165],17.9 (X10E06)/mm3 and 12.4 (X10E06)/mm3
6,OC(CNc1cccc2ccccc12)Cn1c2ccccc2c2ccccc21 (stereo not shown) [S180],13.0 (X10E06)/mm3 and 9.4 (X10E06)/mm3
7,CN(C)C[C@H](O)CN1c2ccccc2CCc2ccccc21 [S181],11.3 (X10E06)/mm3 and 8.3 (X10E06)/mm3
